Assays:
[1] = target: the molecule itself; assay: native gel or EMSA; PCNA variants incubated 24 h at 4 °C, 4 to 20% native PAGE, Coomassie
[2] = target: T1, His-tagged full-length FEN1 (Flap endonuclease 1) (human, UniProt P39748); assay: pull-down; His-tagged full-length FEN1 from E. coli lysate coupled to cobalt resin and washed; incubated 1 h with 5 μM PCNA at 4 °C; washed, eluted with imidazole; SDS-PAGE, Coomassie, densitometry; conditions: both partners purified
T1 construct: Flap endonuclease 1 (FEN1), human, full length; also called hFEN1-6xHis; source: E. coli Rosetta (pET28b/hFEN1-6xHis), lysate coupled to cobalt resin and washed
T1 sequence (P39748 whole entry): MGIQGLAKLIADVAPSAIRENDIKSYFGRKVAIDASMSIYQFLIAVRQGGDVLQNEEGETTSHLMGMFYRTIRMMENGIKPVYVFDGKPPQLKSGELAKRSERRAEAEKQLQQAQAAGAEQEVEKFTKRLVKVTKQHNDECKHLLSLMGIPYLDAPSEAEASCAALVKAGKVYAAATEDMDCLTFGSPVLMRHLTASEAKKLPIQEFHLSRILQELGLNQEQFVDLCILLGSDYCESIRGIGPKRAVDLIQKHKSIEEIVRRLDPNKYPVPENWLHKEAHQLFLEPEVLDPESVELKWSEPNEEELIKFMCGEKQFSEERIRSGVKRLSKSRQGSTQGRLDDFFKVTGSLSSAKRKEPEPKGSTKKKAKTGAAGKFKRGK

Binder	stoichiometry N [1]	binding result [2]
PCNA-S228I (natural protein, Proliferating cell nuclear antigen (PCNA), human, disease-associated natural allele S228I; also called p.Ser228Ile; PARD variant; source: E. coli BLR-DE3 (pET3c), purified (S and Q HiTrap, Sephacryl-200 gel filtration)) not shown	3	
PCNA-C148S (natural protein, Proliferating cell nuclear antigen (PCNA), human, disease-associated natural allele C148S; made by site-directed mutagenesis of untagged PCNA-WT in pET3c; Untagged; Natural patient allele (homozygous in three PARD patients); also called C148S-PCNA; p.Cys148Ser; source: E. coli BLR-DE3 (pET3c), purified (S and Q HiTrap, Sephacryl-200 gel filtration)) not shown	3	binds
